From the supplement of paper PMC10498489
Out of some 2,300 compounds screened, about 330 (14%) showed activity.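 The calls were made as follows: active = median modified Z-score above 1.96; inactive = 1.96 or below.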 This is a selection; strong and weak results do not stand in their true shares.

System: HepG2 Srxn1-GFP reporter cells (+30 nM CDDO-Me)
Test: Srxn1-GFP intensity median modified Z-score relative to plate median; higher = stronger NRF2 / oxidative stress reporter activation, active = hit call of the paper
Settings: 10 µM; exposure time: 24h
How it was run: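 HepG2 Srxn1-GFP BAC reporter cells were seeded at 20,000 per well in 96-well plates and co-exposed for 24 h to compound at 10 μM and an NRF2 activator at 30 nM, with DMSO at ≤0.1%, in three replicate plates. Cells were fixed with formaldehyde, stained with Hoechst and imaged by confocal microscopy, and cytoplasmic GFP was measured per cell, with images holding under 100 cells discarded. The reported value is the median over replicates of each plate's modified Z-score of GFP intensity. For this score, scaling used 1.4826 × median absolute deviation.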

| Compound | Srxn1-GFP intensity median modified Z-score |
| --- | --- |
| CC(=O)OC=C1CSC2C(N)C(=O)N2C1C(=O)O (stereo unspecified) [euspeclibcmpd1380] | inactive: -0.0231 |
| N=c1c2ccccc2[nH]c2ccccc12 [euspeclibcmpd350] | active: 15 |
| NS(=O)(=O)c1cc2c(cc1C(F)(F)F)NC(Cc1ccccc1)NS2(=O)=O (stereo unspecified) [euspeclibcmpd527] | inactive: 0.0905 |
| CC(CN1c2ccccc2Sc2ccccc21)N(C)C (stereo unspecified) [euspeclibcmpd253] | inactive: -0.505 |
| CCCCCCCCCCCCCCCCC(C(=O)O)C(O)(CC(=O)O)C(=O)O (stereo unspecified) [euspeclibcmpd1735] | active: 3.83 |
| CCn1cc(C(=O)O)c(=O)c2cc(F)c(N3CCNCC3)cc21 [euspeclibcmpd215] | inactive: -0.3 |
| O=C(O)c1cc(N=Nc2ccc(S(=O)(=O)N=c3cccc[nH]3)cc2)ccc1O [euspeclibcmpd280] | inactive: -0.614 |
| COc1ccccc1OCCNCC(O)COc1cccc2[nH]c3ccccc3c12 (stereo unspecified) [euspeclibcmpd2429] | inactive: -0.573 |
| COc1ccccc1OCCNCC(O)COc1cccc2[nH]c3ccccc3c12 (stereo unspecified) [euspeclibcmpd674] | inactive: 1.52 |
| COc1ccc(C(C)=O)c(O)c1 [euspeclibcmpd1758] | inactive: -0.216 |
| COc1c(O)cc2c(c1O)[C@@H]1O[C@H](CO)[C@@H](O)[C@H](O)[C@H]1OC2=O [euspeclibcmpd559] | inactive: -0.423 |
| CC(C)=CCCC1(C)C=Cc2c(O)c3c(c(CC=C(C)C)c2O1)OC12C(=CCCC1C(C)(C)O[C@@]2(C=CC(C)C(=O)O)C(=O)O)C3=O (stereo partly specified) [euspeclibcmpd1701] | active: 6.67 |
| CCCCOc1ccc(OCCCN2CCOCC2)cc1 [euspeclibcmpd396] | active: 2.42 |
| COC(=O)/C(=C1\OC(=O)C(c2ccccc2)C1=O)c1ccccc1 (stereo unspecified) [euspeclibcmpd1487] | inactive: 1.05 |
| CC1CCc2cc(F)cc3c(=O)c(C(=O)O)cn1c23 (stereo unspecified) [euspeclibcmpd359] | inactive: -1.08 |
| CCCOc1ccc2[nH]c(=NC(=O)OC)[nH]c2c1 [euspeclibcmpd575] | active: 5.09 |
| CC(C)[C@@H]1CC[C@@H](C)C[C@H]1OC(=O)c1ccccc1 [euspeclibcmpd1363] | inactive: -0.526 |
| S=P(N1CC1)(N1CC1)N1CC1 [euspeclibcmpd572] | inactive: -0.024 |
| CC1=CC(=O)C2C(C)(C)CCC[C@]2(C)[C@@]1(O)CCc1ccoc1 (stereo partly specified) [euspeclibcmpd1719] | active: 17.2 |
| CC(C)(C)NCC(O)c1ccc(O)c(CO)c1 (stereo unspecified) [euspeclibcmpd2249] | inactive: -0.119 |
| CCCCCCCC/C=C\CCCCCCCC(=O)O [euspeclibcmpd2051] | inactive: 0.169 |
| Cn1c(=O)c2c(ncn2C)n(C)c1=O [euspeclibcmpd41] | inactive: 0.0172 |
| CCN(CC)C(=O)C(C#N)=Cc1cc(O)c(O)c([N+](=O)[O-])c1 [euspeclibcmpd861] | inactive: -0.942 |

| Compound | Srxn1-GFP intensity median modified Z-score |
| --- | --- |
| COc1ccc2cc1Oc1ccc(cc1)C[C@H]1c3c(cc4c(c3Oc3cc5c(cc3OC)CCN(C)[C@@H]5C2)OCO4)CCN1C [euspeclibcmpd1270] | active: 4.85 |
| CN(C)CCC(c1ccc(Cl)cc1)c1ccccn1 (stereo unspecified) [euspeclibcmpd2113] | inactive: 0.115 |
| OCC(O)CN1CCN(c2ccccc2)CC1 (stereo unspecified) [euspeclibcmpd1057] | inactive: -0.56 |
| COc1cc2c(cc1OC)C(=O)OC2 [euspeclibcmpd1660] | inactive: -0.254 |
| CNC(=O)c1c(I)c(NC(C)=O)c(I)c(C(=O)O)c1I [euspeclibcmpd971] | inactive: -0.735 |
| CCC(=O)NCC[C@@H]1CCc2ccc3c(c21)CCO3 [euspeclibcmpd2343] | inactive: 0.605 |
| COc1c2c(cc3occ(-c4ccc5c(c4)OCO5)c(=O)c13)OC(C)(C)C=C2 [euspeclibcmpd1957] | active: 7.5 |
| O=C1C(CCC(O)c2ccc(F)cc2)[C@@H](c2ccc(O)cc2)N1c1ccc(F)cc1 (stereo partly specified) [euspeclibcmpd714] | inactive: 1.03 |
| OC[C@H](O)[C@@H](O)CO [euspeclibcmpd2221] | inactive: -0.0632 |
| CCCC(CCC)C(=O)O [euspeclibcmpd2307] | inactive: 0.135 |
| CCCCCCCCCCCCCCCC(=O)O[C@@H]1[C@@H](O)[C@@H](O)[C@H]([C@H](NC(=O)C2C[C@@H](CCC)CN2C)[C@H](C)Cl)O[C@@H]1SC (stereo partly specified) [euspeclibcmpd1310] | inactive: 0.0886 |
| COc1c(OC)c2occc2c2oc(=O)ccc12 [euspeclibcmpd1321] | inactive: -0.538 |
| CC(C)=CCC/C(C)=C/COc1ccc2ccc(=O)oc2c1 [euspeclibcmpd2330] | inactive: 0.262 |
| Clc1ccccc1C(c1ccccc1)(c1ccccc1)n1ccnc1 [euspeclibcmpd71] | inactive: -0.969 |
| Clc1ccc(COC(Cn2ccnc2)c2ccc(Cl)cc2Cl)cc1 (stereo unspecified) [euspeclibcmpd413] | active: 15.1 |
| CN=C(NC#N)NCCSCc1[nH]cnc1C [euspeclibcmpd338] | active: 3.04 |
| COC1CC2CCC(C)C(O)(O2)C(=O)C(=O)N2CCCCC2C(=O)OC(C(C)CC2CCC(O)C(OC)C2)CC(=O)/C(C)=C/C(C)C(O)C(OC)C(=O)C(C)CC(C)/C=C/C=C/C=C/1C (stereo unspecified) [euspeclibcmpd645] | active: 2.8 |
| C=C(C)C1CC=C(C)CC1 (stereo unspecified) [euspeclibcmpd1249] | inactive: -0.263 |
| CCN(CC)C(=O)N1CCN(C)CC1 [euspeclibcmpd92] | inactive: -0.282 |
| CC(NC(CCc1ccccc1)C(=O)O)C(=O)N1CCCC1C(=O)O (stereo unspecified) [euspeclibcmpd609] | inactive: 0.185 |
| COc1ccc(-n2nc(CCC(=O)N(C)O)cc2-c2ccc(Cl)cc2)cc1 [euspeclibcmpd2352] | inactive: 1.56 |
| CCCSc1ccc2[nH]c(=NC(=O)OC)[nH]c2c1 [euspeclibcmpd630] | active: 3.71 |
| CN1CCN(CC/C=C2\c3ccccc3Sc3ccc(S(=O)(=O)N(C)C)cc32)CC1 [euspeclibcmpd294] | active: 4.72 |
